Test results reported in the supplement of paper PMC10369915.
This is one part of the list. Cut-off read from the data, not from the text of the source: active = 3.2 or more and inactive = the rest. The signal is at background level for most entries.

The binders below were run against SHP2 C-SH2 domain E139D (assay: enrichment score (SH2-bound / input frequency) (ratio); bacterial display of known human phosphotyrosine sites (pTyr-Var adds point mutants) read by sequencing; higher = stronger binding; tyrosines were phosphorylated by kinases first). Details: peptide library: pTyr-Var.
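Note: displayed peptides selected on beads carrying the immobilized SH2 domain, with library peptides lacking any tyrosine serving as negative controls.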

Enrichment score, inactive:
GPQGFYSNKLV [PTPN14_Y506_V505F] 1.2
AALSAYAAQRP [PTPRN2_Y249] 0.844
NTVDYYDLYGG [PTPN11_Y63_G60V] 0.987
VKKNRYKDILP [PTPN12_Y64] 0.86
RGYRVCYTPDS [PTPRF_Y450_Y450C] 0.914
AELVQYYMEHH [PTPN11_Y80] 1.29
NAGDFYDLFGG [PTPN11_Y63_T59A_YF] 0.909
KTGDYYDLYGG [PTPN11_Y63_N58K] 0.738
NFFDLYGGEKF [PTPN11_Y66_D61N_YF] 1.34
GYRVYYTPDSR [PTPRF_Y451] 1.08
NTGDFYDLFGG [PTPN11_Y63_YF] 1.13
NTGVYYDLYGG [PTPN11_Y63_D61V] 1.42
AALVQYFMEHH [PTPN11_Y80_E76A_YF] 2.7
NTADFYDLFGG [PTPN11_Y63_G60A_YF] 1.11
GYRVCYTPDSR [PTPRF_Y451_Y450C] 0.823
NYYDLYGGEKF [PTPN11_Y66_D61N] 1.21
AGLVQYFMEHH [PTPN11_Y80_E76G_YF] 1.92

Each binder was assayed against SHP2 C-SH2 domain wild-type in the same assay as above. Details: peptide library: pTyr-Var.

Enrichment score, inactive:
GPQGFYSNKLV [PTPN14_Y506_V505F] 0.95
AALSAYAAQRP [PTPRN2_Y249] 0.844
NTVDYYDLYGG [PTPN11_Y63_G60V] 0.778
VKKNRYKDILP [PTPN12_Y64] 0.638
RGYRVCYTPDS [PTPRF_Y450_Y450C] 0.762
AELVQYYMEHH [PTPN11_Y80] 1.46
NAGDFYDLFGG [PTPN11_Y63_T59A_YF] 1
RVGVDYEGGGC [PLOD1_Y675] 0.993
KTGDYYDLYGG [PTPN11_Y63_N58K] 0.643
NFFDLYGGEKF [PTPN11_Y66_D61N_YF] 1.58
GYRVYYTPDSR [PTPRF_Y451] 1.16
NTGDFYDLFGG [PTPN11_Y63_YF] 1.03
NTGVYYDLYGG [PTPN11_Y63_D61V] 1.3
AALVQYFMEHH [PTPN11_Y80_E76A_YF] 2.48
NTADFYDLFGG [PTPN11_Y63_G60A_YF] 1.02
GYRVCYTPDSR [PTPRF_Y451_Y450C] 1.09
NYYDLYGGEKF [PTPN11_Y66_D61N] 0.943
AGLVQYFMEHH [PTPN11_Y80_E76G_YF] 1.78

The binders below were run against SHP2 N-SH2 domain L43F in the same assay as above. Details: peptide library: pTyr-Var.

Enrichment score, inactive:
GPQGFYSNKLV [PTPN14_Y506_V505F] 0.897
AALSAYAAQRP [PTPRN2_Y249] 0.725
NTVDYYDLYGG [PTPN11_Y63_G60V] 0.807
VKKNRYKDILP [PTPN12_Y64] 0.483
RGYRVCYTPDS [PTPRF_Y450_Y450C] 0.7
NHFKIYNLFAE [PTEN_Y68_C71Y_YF] 0.852
AELVQYYMEHH [PTPN11_Y80] 1.33
NAGDFYDLFGG [PTPN11_Y63_T59A_YF] 0.914
KTGDYYDLYGG [PTPN11_Y63_N58K] 0.642
NFFDLYGGEKF [PTPN11_Y66_D61N_YF] 1.1
GYRVYYTPDSR [PTPRF_Y451] 1.24
NTGDFYDLFGG [PTPN11_Y63_YF] 1.17
NTGVYYDLYGG [PTPN11_Y63_D61V] 1.12
AALVQYFMEHH [PTPN11_Y80_E76A_YF] 2.63
NTADFYDLFGG [PTPN11_Y63_G60A_YF] 0.964
GYRVCYTPDSR [PTPRF_Y451_Y450C] 0.792
NYYDLYGGEKF [PTPN11_Y66_D61N] 0.861
AGLVQYFMEHH [PTPN11_Y80_E76G_YF] 1.83

The binders below were run against SHP2 N-SH2 domain T42A in the same assay as above. Details: peptide library: pTyr-Var.

Enrichment score, inactive:
GPQGFYSNKLV [PTPN14_Y506_V505F] 0.734
AALSAYAAQRP [PTPRN2_Y249] 0.672
NTVDYYDLYGG [PTPN11_Y63_G60V] 0.864
VKKNRYKDILP [PTPN12_Y64] 0.55
RGYRVCYTPDS [PTPRF_Y450_Y450C] 0.681
AELVQYYMEHH [PTPN11_Y80] 1.23
NAGDFYDLFGG [PTPN11_Y63_T59A_YF] 0.796
RVGVDYEGGGC [PLOD1_Y675] 0.319
KTGDYYDLYGG [PTPN11_Y63_N58K] 0.797
NFFDLYGGEKF [PTPN11_Y66_D61N_YF] 1.16
GYRVYYTPDSR [PTPRF_Y451] 1.02
NTGDFYDLFGG [PTPN11_Y63_YF] 0.963
NTGVYYDLYGG [PTPN11_Y63_D61V] 1.2
AALVQYFMEHH [PTPN11_Y80_E76A_YF] 2.32
NTADFYDLFGG [PTPN11_Y63_G60A_YF] 1.1
GYRVCYTPDSR [PTPRF_Y451_Y450C] 0.852
NYYDLYGGEKF [PTPN11_Y66_D61N] 0.839
AGLVQYFMEHH [PTPN11_Y80_E76G_YF] 1.78

The binders below were run against SHP2 N-SH2 domain T52S in the same assay as above. Details: peptide library: pTyr-Var.

Enrichment score, inactive:
GPQGFYSNKLV [PTPN14_Y506_V505F] 0.913
AALSAYAAQRP [PTPRN2_Y249] 0.626
NTVDYYDLYGG [PTPN11_Y63_G60V] 0.86
VKKNRYKDILP [PTPN12_Y64] 0.668
RGYRVCYTPDS [PTPRF_Y450_Y450C] 0.7
NHFKIYNLFAE [PTEN_Y68_C71Y_YF] 1.64
AELVQYYMEHH [PTPN11_Y80] 1.51
NAGDFYDLFGG [PTPN11_Y63_T59A_YF] 1
RVGVDYEGGGC [PLOD1_Y675] 1.33
KTGDYYDLYGG [PTPN11_Y63_N58K] 0.629
NFFDLYGGEKF [PTPN11_Y66_D61N_YF] 1.25
GYRVYYTPDSR [PTPRF_Y451] 0.838
NTGDFYDLFGG [PTPN11_Y63_YF] 1.14
NTGVYYDLYGG [PTPN11_Y63_D61V] 1.09
AALVQYFMEHH [PTPN11_Y80_E76A_YF] 2.76
NTADFYDLFGG [PTPN11_Y63_G60A_YF] 1.17
GYRVCYTPDSR [PTPRF_Y451_Y450C] 0.845
NYYDLYGGEKF [PTPN11_Y66_D61N] 0.956
AGLVQYFMEHH [PTPN11_Y80_E76G_YF] 1.68

The binders below were run against SHP2 N-SH2 domain wild-type in the same assay as above. Details: peptide library: pTyr-Var.

Enrichment score, inactive:
GPQGFYSNKLV [PTPN14_Y506_V505F] 0.927
AALSAYAAQRP [PTPRN2_Y249] 0.849
NTVDYYDLYGG [PTPN11_Y63_G60V] 0.947
VKKNRYKDILP [PTPN12_Y64] 0.73
TGEDWYVLVGV [SF3B3_Y904] 1
RGYRVCYTPDS [PTPRF_Y450_Y450C] 1.1
NHFKIYNLFAE [PTEN_Y68_C71Y_YF] 1.85
AELVQYYMEHH [PTPN11_Y80] 1.52
NAGDFYDLFGG [PTPN11_Y63_T59A_YF] 1.05
KTGDYYDLYGG [PTPN11_Y63_N58K] 0.544
NFFDLYGGEKF [PTPN11_Y66_D61N_YF] 1.44
GYRVYYTPDSR [PTPRF_Y451] 1.3
NTGDFYDLFGG [PTPN11_Y63_YF] 1.2
NTGVYYDLYGG [PTPN11_Y63_D61V] 1.28
AALVQYFMEHH [PTPN11_Y80_E76A_YF] 2.28
NTADFYDLFGG [PTPN11_Y63_G60A_YF] 1.06
GYRVCYTPDSR [PTPRF_Y451_Y450C] 1.27
NYYDLYGGEKF [PTPN11_Y66_D61N] 0.983
AGLVQYFMEHH [PTPN11_Y80_E76G_YF] 1.63
